Test results: the supplement of paper PMC4967469
pIC50: −log10 of the molar value. Lines with a small IC50 respond at low doses; a limit (>, <) means that the fit lies beyond the doses tested. AUC is the area under the same curve over the 256-fold range up to the top dose, as a fraction; it is 1 without any effect and falls as sensitivity rises. Where the top dose is marked as inferred, it comes from the curve model; the source does not state it. An entry number marks a drug with two screens in the source, which often give different values.

compound: CS(=O)(=O)N1CCN(Cc2cc3nc(-c4cccc5[nH]ncc45)nc(N4CCOCC4)c3s2)CC1 [GDC0941]; assay: Viability of human cancer cell lines after 72 h of drug (GDSC screen); settings: screen: GDSC drug entry 1058
Experimental: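 Human cancer cell lines in 384-well plates, medium with 10% serum, drug for 72 h over a 256-fold dose range (nine 2-fold or five 4-fold steps up to the top dose). Adherent lines were fixed and stained with the nucleic acid dye Syto60, suspension lines read with resazurin; signal relative to control wells, capped at 0 and 100%. One two-parameter sigmoid per drug and line, fitted in a mixed model over all curves with the slope shared within a line.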

Cell Line	AUC	pIC50
NCI-H1876 (small cell lung carcinoma, adherent, top dose 4 µM)	0.505	6.59
NCI-H1944 (lung adenocarcinoma, adherent, top dose 4 µM)	0.759	5.83
NCI-H2009 (lung adenocarcinoma, adherent, top dose 4 µM)	0.737	5.91
NCI-H2023 (lung adenocarcinoma, adherent, top dose 2 µM)	0.851	< 5.70
NCI-H2052 (mesothelioma, adherent, top dose 4 µM)	0.965	< 5.40
NCI-H2066 (small cell lung carcinoma, adherent, top dose 4 µM)	0.874	< 5.40
NCI-H2081 (small cell lung carcinoma, suspension, top dose 4 µM)	0.958	< 5.40
NCI-H2085 (lung adenocarcinoma, adherent, top dose 2 µM)	0.769	6.09
NCI-H2087 (lung adenocarcinoma, semi-adherent, top dose 4 µM)	0.971	< 5.40
NCI-H2135 (non-small cell lung carcinoma, adherent, top dose 4 µM)	0.991	< 5.40
NCI-H2141 (small cell lung carcinoma, suspension, top dose 4 µM)	0.932	< 5.40
NCI-H2172 (non-small cell lung carcinoma, adherent, top dose 4 µM)	0.939	< 5.40
NCI-H2227 (small cell lung carcinoma, semi-adherent, top dose 4 µM)	0.901	< 5.40
NCI-H2291 (lung adenocarcinoma, adherent, top dose 4 µM)	0.823	5.44
NCI-H2342 (lung adenocarcinoma, adherent, top dose 4 µM)	0.866	< 5.40
NCI-H2347 (lung adenocarcinoma, adherent, top dose 4 µM)	0.928	< 5.40
NCI-H2405 (lung adenocarcinoma, adherent, top dose 4 µM)	0.935	< 5.40
NCI-H2444 (non-small cell lung carcinoma, adherent, top dose 4 µM)	0.859	< 5.40
NCI-H2452 (mesothelioma, adherent, top dose 4 µM)	0.925	< 5.40
NCI-H3122 (lung adenocarcinoma, adherent, top dose 4 µM)	0.755	5.86
NCI-N87 (stomach, adherent, top dose 4 µM)	0.767	5.66
NCI-SNU-1 (stomach, suspension, top dose 4 µM)	0.981	< 5.40
NCI-SNU-5 (stomach, suspension, top dose 4 µM)	0.612	6.29
NCI-SNU-16 (stomach, suspension, top dose 4 µM)	0.985	< 5.40
NEC8 (testis, adherent, top dose 4 µM)	0.648	6.22
NH-12 (neuroblastoma, adherent, top dose 4 µM)	0.755	5.82
NKM-1 (acute myeloid leukaemia, suspension, top dose 4 µM)	0.771	5.80

Cell Line	AUC	pIC50
NMC-G1 (glioma, adherent, top dose 4 µM)	0.887	< 5.40
NOS-1 (osteosarcoma, adherent, top dose 4 µM)	0.511	6.57
NU-DUL-1 (B-cell lymphoma, suspension, top dose 4 µM)	0.327	7.04
NUGC-3 (stomach, adherent, top dose 2 µM)	0.906	< 5.70
NUGC-4 (stomach, adherent, top dose 4 µM)	0.971	< 5.40
NY (osteosarcoma, adherent, top dose 4 µM)	0.944	< 5.40
OACM5-1 (oesophagus, semi-adherent, top dose 4 µM)	0.961	< 5.40
OACp4C (oesophagus, adherent, top dose 4 µM)	0.696	6.00
OAW-28 (ovary, adherent, top dose 2 µM)	0.941	< 5.70
OAW-42 (ovary, adherent, top dose 4 µM)	0.672	6.10
OC-314 (ovary, adherent, top dose 4 µM)	0.768	5.89
OCI-AML2 (acute myeloid leukaemia, suspension, top dose 4 µM)	0.995	< 5.40
OCI-AML3 (acute myeloid leukaemia, suspension, top dose 4 µM)	0.891	5.46
OCI-AML5 (acute myeloid leukaemia, suspension, top dose 4 µM)	0.757	5.90
OCI-LY7 (B-cell lymphoma, suspension, top dose 4 µM)	0.231	7.25
OCI-LY-19 (B-cell lymphoma, suspension, top dose 4 µM)	0.823	5.68
OCI-M1 (acute myeloid leukaemia, suspension, top dose 4 µM)	0.99	< 5.40
OCUB-M (breast, adherent, top dose 4 µM)	0.945	< 5.40
OCUM-1 (stomach, adherent, top dose 4 µM)	0.842	5.49
OE19 (oesophagus, adherent, top dose 4 µM)	0.917	< 5.40
OE21 (oesophagus, adherent, top dose 4 µM)	0.685	6.00
OE33 (oesophagus, adherent, top dose 4 µM)	0.829	5.50
OMC-1 (cervix, adherent, top dose 4 µM)	0.694	6.05
ONS-76 (medulloblastoma, adherent, top dose 4 µM)	0.976	< 5.40
OS-RC-2 (kidney, adherent, top dose 4 µM)	0.959	< 5.40
OSC-19 (head and neck, adherent, top dose 4 µM)	0.719	5.97
OSC-20 (head and neck, adherent, top dose 2 µM)	0.73	6.19

Cell Line	AUC	pIC50
OV-7 (ovary, adherent, top dose 4 µM)	0.636	6.14
OV-17R (ovary, adherent, top dose 4 µM)	0.757	5.72
OV-56 (ovary, adherent, top dose 4 µM)	0.909	< 5.40
OV-90 (ovary, adherent, top dose 4 µM)	0.817	5.51
OVCA420 (ovary, adherent, top dose 4 µM)	0.703	5.94
OVCA433 (ovary, adherent, top dose 4 µM)	0.699	6.01
OVCAR-3 (ovary, adherent, top dose 4 µM)	0.945	< 5.40
OVCAR-5 (ovary, adherent, top dose 4 µM)	0.681	6.05
OVCAR-8 (ovary, adherent, top dose 4 µM)	0.868	5.52
OVISE (ovary, adherent, top dose 4 µM)	0.461	6.72
OVK-18 (ovary, adherent, top dose 4 µM)	0.608	6.29
OVKATE (ovary, adherent, top dose 4 µM)	0.869	< 5.40
OVMIU (ovary, adherent, top dose 4 µM)	0.821	5.51
OVTOKO (ovary, adherent, top dose 4 µM)	0.512	6.57
P30-OHK (lymphoblastic leukaemia, suspension, top dose 4 µM)	0.401	6.85
P31-FUJ (acute myeloid leukaemia, suspension, top dose 4 µM)	0.969	< 5.40
P32-ISH (Burkitt lymphoma, suspension, top dose 4 µM)	0.731	6.03
PA-1 (ovary, adherent, top dose 4 µM)	0.893	5.53
PA-TU-8902 (pancreas, adherent, top dose 4 µM)	0.874	< 5.40
PANC-02-03 (pancreas, adherent, top dose 4 µM)	0.597	6.31
PANC-03-27 (pancreas, adherent, top dose 4 µM)	0.737	5.95
PANC-04-03 (pancreas, adherent, top dose 4 µM)	0.88	< 5.40
PANC-10-05 (pancreas, adherent, top dose 2 µM)	0.921	< 5.70
PC-3 [JPC-3] (lung adenocarcinoma, adherent, top dose 4 µM)	0.98	< 5.40
PC-14 (lung adenocarcinoma, adherent, top dose 4 µM)	0.87	5.52
PCI-4B (head and neck, adherent, top dose 4 µM)	0.669	6.14

same assay, conditions: top dose 4 µM; screen: GDSC drug entry 1527; top dose inferred

Cell Line	AUC	pIC50
NCI-H2066 (small cell lung carcinoma, adherent)	0.893	< 5.40
